This passage reports IC50 results from patent publication US11618753B2 (priority 2018, dated 2023).

The subject of the test is MLKL phosphorylation, HT29-L23 human colorectal adenocarcinoma cells. Briefly: cells. The following applies: read-out: pMLKL HCS Cell Assay (IC50, uM).
For the compound `COc1ncc(-c2cc(C(F)(F)F)c3c(N)ncnn23)cc1C(=O)N[C@@H]1CN(S(=O)(=O)Cc2ccccc2F)C[C@@H]1F` [Example 1497, 5-[4-amino-5-(trifluoromethyl)pyrrolo[2,1-f][1,2,4]triazin-7-yl]-N-[(3R,4S)-4-fluoro-1-[(2-fluorophenyl)methanesulfonyl]pyrrolidin-3-yl]-2-methoxypyridine-3-carboxamide], the IC50 stood at 0.0094 µM.
As for `COc1ncc(-c2cc(CN3CCC(F)(F)CC3)c3c(N)ncnn23)cc1C(=O)N[C@@H]1CN(C(=O)c2ccc(Cl)cn2)C[C@@H]1F` [Example 1257, 5-{4-amino-5-[(4,4-difluoropiperidin-1-yl)methyl]pyrrolo[2,1-f][1,2,4]triazin-7-yl}-N-[(3R,4S)-1-(5-chloropyridine-2-carbonyl)-4-fluoropyrrolidin-3-yl]-2-methoxypyridine-3-carboxamide], the figure is 0.056 µM; as for `COc1ncc(-c2cc(C(F)(F)F)c3c(N)ncnn23)cc1C(=O)NC1CN(Cc2ccc(F)c(F)c2)CC1F` (racemic) [Example 211, 5-[4-amino-5-(trifluoromethyl)pyrrolo[2,1-f][1,2,4]triazin-7-yl]-N-{1-[(3,4-difluorophenyl)methyl]-4-fluoropyrrolidin-3-yl}-2-methoxypyridine-3-carboxamide], 0.0062 µM.
In the case of `COc1cc(C(=O)N[C@@H]2CN(C(=O)C3CCC(F)(F)CC3)C[C@@H]2F)cc(-c2cc(C(F)(F)F)c3c(N)ncnn23)c1` [Example 580, 3-[4-amino-5-(trifluoromethyl)pyrrolo[2,1-f][1,2,4]triazin-7-yl]-N-[(3R,4S)-1-(4,4-difluorocyclohexanecarbonyl)-4-fluoropyrrolidin-3-yl]-5-methoxybenzamide], the IC50 was found to be 0.041 µM.
Regarding `COc1ncc(-c2cc(CNCCO)c3c(N)ncnn23)cc1C(=O)NCC[C@H](O)c1ccc(Cl)cc1` [Example 57, (S)-5-(4-amino-5-(((2-hydroxyethyl)amino)methyl)pyrrolo[2,1-f][1,2,4]triazin-7-yl)-N-(3-(4-chlorophenyl)-3-hydroxypropyl)-2-methoxynicotinamide], the IC50 turned out to be 0.014 µM.
As to `COc1ncc(-c2cc(C(F)(F)F)c3c(N)ncnn23)cc1C(=O)N[C@@H]1CN(C(C)c2cscn2)C[C@@H]1F` (stereo partly drawn) [Example 1402, 5-[4-amino-5-(trifluoromethyl)-pyrrolo[2,1-f][1,2,4]triazin-7-yl]-N-[(3R,4S)-4-fluoro-1-[1-(1,3-thiazol-4-yl)ethyl]-pyrrolidin-3-yl]-2-methoxy-pyridine-3-carboxamide], the IC50 is 0.017 µM.
As for `Cc1ccc(-c2cc(C(F)(F)F)c3c(N)ncnn23)c(F)c1C(=O)N[C@@H]1CN(C(=O)CC(C)C(F)(F)F)C[C@@H]1F` (stereo partly drawn) [Example 752, 3-[4-amino-5-(trifluoromethyl)pyrrolo[2,1-f][1,2,4]triazin-7-yl]-2-fluoro-N-[(3R,4S)-4-fluoro-1-(4,4,4-trifluoro-3-methylbutanoyl)pyrrolidin-3-yl]-6-methylbenzamide], the IC50 is 0.0012 µM.
Consider `Nc1ncnn2c(-c3cccc(C(=O)N[C@@H]4CN(C(=O)C5CCC(F)(F)C5)C[C@@H]4F)c3F)cc(C(F)(F)F)c12` (stereo partly drawn) [Example 772, 3-[4-amino-5-(trifluoromethyl)pyrrolo[2,1-f][1,2,4]triazin-7-yl]-N-[(3R,4S)-1-(3,3-difluorocyclopentanecarbonyl)-4-fluoropyrrolidin-3-yl]-2-fluorobenzamide], for which the IC50 is 0.113 µM.
In the case of `COc1ncc(-c2cc(CN3CCC(F)(F)CC3)c3c(N)ncnn23)cc1C(=O)N[C@@H]1CN(C(=O)c2cscn2)C[C@@H]1F` [Example 1256, 5-{4-amino-5-[(4,4-difluoropiperidin-1-yl)methyl]pyrrolo[2,1-f][1,2,4]triazin-7-yl}-N-[(3R,4S)-4-fluoro-1-(1,3-thiazole-4-carbonyl)pyrrolidin-3-yl]-2-methoxypyridine-3-carboxamide], the IC50 was found to be 0.0021 µM.
Regarding `Nc1ncnn2c(-c3cccc(C(=O)N[C@@H]4CN(C(=O)C5(F)CCC5)C[C@@H]4F)c3)cc(C(F)(F)F)c12` [Example 93, 3-[4-amino-5-(trifluoromethyl)pyrrolo[2,1-f][1,2,4]triazin-7-yl]-N-[(3R,4S)-4-fluoro-1-(1-fluorocyclobutanecarbonyl)pyrrolidin-3-yl]benzamide], the concentration for half-maximal inhibition (IC50) is 0.022 µM.
In the case of `Cc1ccc(-c2cc(C(F)(F)F)c3c(N)ncnn23)cc1C(=O)N[C@@H]1CN(C(=O)c2cccc(F)c2)C[C@@H]1F` [Example 1003, 5-[4-amino-5-(trifluoromethyl)pyrrolo[2,1-f][1,2,4]triazin-7-yl]-N-[(3R,4S)-4-fluoro-1-(3-fluorobenzoyl)pyrrolidin-3-yl]-2-methylbenzamide], the IC50 came to 0.0038 µM.
In the case of `COc1ncc(-c2cc(C(F)(F)F)c3c(N)ncnn23)cc1C(=O)N[C@@H]1CN(S(=O)(=O)c2cccc3ccccc23)C[C@@H]1F` [Example 1471, 5-[4-amino-5-(trifluoromethyl)pyrrolo[2,1-f][1,2,4]triazin-7-yl]-N-[(3R,4S)-4-fluoro-1-(naphthalene-1-sulfonyl)pyrrolidin-3-yl]-2-methoxypyridine-3-carboxamide], the 50% inhibitory concentration (IC50) was found to be 0.094 µM.
As for `CCC(O)(C(=O)N1C[C@H](F)[C@H](NC(=O)c2cc(-c3cc(C(F)(F)F)c4c(N)ncnn34)ccc2OC(F)(F)F)C1)C(F)(F)F` (stereo partly drawn) [Example 1051, 5-[4-amino-5-(trifluoromethyl)pyrrolo[2,1-f][1,2,4]triazin-7-yl]-N-[(3R,4S)-4-fluoro-1-[2-hydroxy-2-(trifluoromethyl)butanoyl]pyrrolidin-3-yl]-2-(trifluoromethoxy)benzamide], the figure is 0.035 µM; as for `Nc1ncnn2c(-c3ccc(Cl)c(C(=O)N[C@@H]4CN(C(=O)CC(F)(F)F)C[C@@H]4F)c3)cc(CN3CCC(F)(F)CC3)c12` [Example 1145, 5-{4-amino-5-[(4,4-difluoropiperidin-1-yl)methyl]pyrrolo[2,1-f][1,2,4]triazin-7-yl}-2-chloro-N-[(3R,4S)-4-fluoro-1-(3,3,3-trifluoropropanoyl)pyrrolidin-3-yl]benzamide], 0.0019 µM; as for `Cc1ccc(-c2cc(C(F)(F)F)c3c(N)ncnn23)cc1C(=O)N[C@@H]1CN(C(=O)CC(F)(F)F)C[C@@H]1F` [Example 985, 5-[4-amino-5-(trifluoromethyl)pyrrolo[2,1-f][1,2,4]triazin-7-yl]-N-[(3R,4S)-4-fluoro-1-(3,3,3-trifluoropropanoyl)pyrrolidin-3-yl]-2-methylbenzamide], 0.0067 µM.
As to `Cc1ncc(-c2cc(C(F)(F)F)c3c(N)ncnn23)cc1C(=O)NC1CN(C(=O)C2CCC(F)CC2)C[C@@H]1F` (stereo in doubt) [Example 359, 5-[4-amino-5-(trifluoromethyl)pyrrolo [2,1-f][1,2,4]triazin-7-yl]-N-[4-fluoro-1-(4-fluorocyclohexanecarbonyl)pyrrolidin-3-yl]-2-methylpyridine-3-carboxamide], the IC50 was found to be 0.015 µM.
For the compound `COc1ncc(-c2cc(C(F)(F)F)c3c(N)ncnn23)cc1C(=O)NC1CN(Cc2cc(F)ccc2F)CC1F` (racemic) [Example 234, 5-[4-amino-5-(trifluoromethyl)pyrrolo[2,1-f][1,2,4]triazin-7-yl]-N-{1-[(2,5-difluorophenyl)methyl]-4-fluoropyrrolidin-3-yl}-2-methoxypyridine-3-carboxamide], the IC50 is 0.015 µM.
In the case of `Cc1ncc(-c2cc(C(F)(F)F)c3c(N)ncnn23)cc1C(=O)NCC(C)(O)CC(C)(C)C` (stereo not drawn) [Example 1746, 5-(4-amino-5-(trifluoromethyl)pyrrolo[2,1-f][1,2,4]triazin-7-yl)-N-(2-hydroxy-2,4,4-trimethylpentyl)-2-methylnicotinamide] it was 0.074 µM.
Take `COc1ncc(-c2cc(CNCCO)c3c(N)ncnn23)cc1C(=O)N[C@@H]1CN(CC(O)C(F)(F)F)C[C@@H]1F` (stereo partly drawn) [Example 478, 5-(4-amino-5-{[(2-hydroxyethyl)amino]methyl}pyrrolo[2,1-f][1,2,4]triazin-7-yl)-N-[(3R,4S)-4-fluoro-1-(3,3,3-trifluoro-2-hydroxypropyl)pyrrolidin-3-yl]-2-methoxypyridine-3-carboxamide]: the half-maximal inhibitory concentration (IC50) turned out to be 0.078 µM.
As for `[2H]C([2H])([2H])Oc1ncc(-c2cc(CN3CC(F)(F)C3)c3c(N)ncnn23)cc1C(=O)N[C@@H]1CN(S(=O)(=O)Cc2ccccc2)C[C@@H]1F` [Example 1296, 5-{4-amino-5-[(3,3-difluoroazetidin-1-yl)methyl]pyrrolo[2,1-f][1,2,4]triazin-7-yl}-N-[(3R,4S)-4-fluoro-1-phenylmethanesulfonylpyrrolidin-3-yl]-2-(methoxy-d3)nicotinamide], the IC50 came out at 0.00069 µM.
As to `CC(C)(O)C(=O)N1C[C@H](F)[C@H](NC(=O)c2cccc(-c3cc(C(F)(F)F)c4c(N)ncnn34)c2)C1` [Example 87, 3-[4-amino-5-(trifluoromethyl)pyrrolo[2,1-f][1,2,4]triazin-7-yl]-N-[(3R,4S)-4-fluoro-1-(2-hydroxy-2-methylpropanoyl)pyrrolidin-3-yl)benzamide], the IC50 is 0.245 µM.
For the compound `Cc1ncc(-c2cc(C(F)(F)F)c3c(N)ncnn23)cc1C(=O)N[C@@H]1CN(C(=O)C2CCC(F)(F)CC2)C[C@@H]1C` [Example 293, 5-[4-amino-5-(trifluoromethyl)pyrrolo[2,1-f][1,2,4]triazin-7-yl]-N-[(3S,4S)-1-(4,4-difluorocyclohexanecarbonyl)-4-methylpyrrolidin-3-yl]-2-methylpyridine-3-carboxamide], the IC50 was 0.053 µM.
As for `COc1ncc(-c2cc(CNC(C)=O)c3c(N)ncnn23)cc1C(=O)N[C@@H]1CN(C(=O)C2CC(F)(F)C2)C[C@@H]1F` [Example 495, 5-[4-amino-5-(acetamidomethyl)pyrrolo[2,1-f][1,2,4]triazin-7-yl]-N-[(3R,4S)-1-(3,3-difluorocyclobutanecarbonyl)-4-fluoropyrrolidin-3-yl]-2-methoxypyridine-3-carboxamide], the figure is 0.313 µM; as for `C[C@@](O)(C(=O)N1C[C@H](F)[C@H](NC(=O)c2cc(-c3cc(C(F)(F)F)c4c(N)ncnn34)ccc2OC(F)F)C1)C(F)(F)F` [Example 1080, 5-[4-amino-5-(trifluoromethyl)pyrrolo[2,1-f][1,2,4]triazin-7-yl]-2-(difluoromethoxy)-N-[(3R,4S)-4-fluoro-1-[(2R)-3,3,3-trifluoro-2-hydroxy-2-methylpropanoyl]pyrrolidin-3-yl]benzamide], 0.0071 µM.

The term IC50 denotes the concentration that gives 50% inhibition.
